# Measurements: publication PMC4336329 (PLoS ONE, 2015)
# The whole screen tested about 310,000 compounds, of which about 14,000 (4.5%) showed an effect of 50% or more. Effects have a minus sign here. The list shows a part of the results.
# Molecular target: human ether-à-go-go-related gene (hERG) potassium channel (human, UniProt Q12809)
# Assay: primary screen, population patch clamp on CHO cells stably expressing hERG
# 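Also: peak tail current of the secondary pulse compared with the same well before compound.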
# human ether-à-go-go-related gene (hERG) potassium channel, sequence (Q12809 whole entry, looked up): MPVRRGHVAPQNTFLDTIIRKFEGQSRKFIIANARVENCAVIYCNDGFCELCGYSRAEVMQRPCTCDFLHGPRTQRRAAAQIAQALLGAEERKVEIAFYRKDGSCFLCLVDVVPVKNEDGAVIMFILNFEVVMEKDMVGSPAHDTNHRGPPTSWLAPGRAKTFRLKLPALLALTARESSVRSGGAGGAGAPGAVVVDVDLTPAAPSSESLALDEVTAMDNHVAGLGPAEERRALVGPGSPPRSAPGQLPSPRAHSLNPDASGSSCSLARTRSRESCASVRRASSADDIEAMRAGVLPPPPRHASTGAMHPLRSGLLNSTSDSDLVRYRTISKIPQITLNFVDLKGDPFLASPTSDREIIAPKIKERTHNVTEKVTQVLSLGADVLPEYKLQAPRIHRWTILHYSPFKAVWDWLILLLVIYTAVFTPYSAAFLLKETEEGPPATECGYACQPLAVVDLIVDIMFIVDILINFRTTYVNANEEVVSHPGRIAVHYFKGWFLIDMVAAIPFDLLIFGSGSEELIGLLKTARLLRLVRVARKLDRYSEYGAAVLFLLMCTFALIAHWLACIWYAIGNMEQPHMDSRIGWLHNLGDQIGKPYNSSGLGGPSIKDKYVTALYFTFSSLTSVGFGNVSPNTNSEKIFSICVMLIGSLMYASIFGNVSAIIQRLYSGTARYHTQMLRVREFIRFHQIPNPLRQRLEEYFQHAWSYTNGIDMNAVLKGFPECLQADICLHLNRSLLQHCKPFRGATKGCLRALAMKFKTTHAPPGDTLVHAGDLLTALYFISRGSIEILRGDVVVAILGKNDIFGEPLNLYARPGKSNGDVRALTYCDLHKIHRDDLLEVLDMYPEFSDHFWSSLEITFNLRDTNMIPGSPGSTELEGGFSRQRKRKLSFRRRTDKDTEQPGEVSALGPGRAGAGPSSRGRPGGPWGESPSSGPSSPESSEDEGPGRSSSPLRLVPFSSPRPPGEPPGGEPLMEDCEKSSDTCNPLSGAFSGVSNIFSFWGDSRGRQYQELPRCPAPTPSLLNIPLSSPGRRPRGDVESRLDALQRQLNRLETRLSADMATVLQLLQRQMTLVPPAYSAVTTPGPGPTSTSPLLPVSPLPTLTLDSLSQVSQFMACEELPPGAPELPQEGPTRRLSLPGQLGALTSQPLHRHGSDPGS
row,Structure (SMILES),"hERG current change (%, negative = inhibition) at 10uM"
1,CN(Cc1ccccc1)C(=O)CCS(=O)(=O)c1ccc2c(c1)n(C)c(=O)c(=O)n2C,-8.17%
2,COc1ccc(COC(=O)C2=C(C)NC(=O)NC2c2ccc(OC)c(OC)c2)cc1 (stereo not shown),8.58%
3,O=C(COc1ccccc1)Nc1ccc(S(=O)(=O)Nc2ncccn2)cc1,23.4%
4,CC(=O)OC1CC[C@@]2(C)C(CCC3C2CC(=O)[C@@]2(C)C3CC3CC(C)=CC(=O)C32)C1 (stereo partly shown),9.48%
5,Cc1cc(OC(C)C(=O)NCCCn2ccnc2)c2c(C)c(C)c(=O)oc2c1 (stereo not shown),-76.7%
6,O=C1NC(c2ccncc2)Nc2ccccc21 (stereo not shown),21.8%
7,COc1ccc(C2(CNC(=O)CCC(=O)O)CCCC2)cc1,1.6%
8,CC(C)CCN=Cc1c(O)n(-c2ccccc2)c(=O)c2ccccc12,-7.19%
9,CN(C)C(=O)N1CCCC(C(=O)NCc2ccccc2)C1 (stereo not shown),13.6%
10,CCN1CCN(C(=O)/C=C/c2ccc(C)cc2)CC1,-23.1%
11,Cc1ccc(NS(=O)(=O)c2ccc(-c3ccc(=O)[nH]n3)o2)cc1,-12.7%
12,CCSc1nnc(NC(=O)Nc2cccc(C)c2)s1,12.8%
13,CC(C)N(C(=O)CSc1nnc(NC(=O)C2CCC2)s1)C(C)C,-11.1%
14,Cc1nn(C)c2nc(-c3cccs3)cc(C(F)(F)F)c12,12.7%
15,CCC(c1nnc(SCC(=O)NCCc2ccc(Cl)cc2Cl)o1)N(C)C (stereo not shown),-19.9%
16,O=C1CN(C(=O)c2ccco2)C(c2ccc(F)cc2)c2cc(Cl)ccc2N1 (stereo not shown),-35.9%
17,O=C(Cn1ccsc1=NC(=O)c1ccco1)c1ccccc1,-6.93%
18,CC1CCN(C(CNS(=O)(=O)c2ccccc2)c2ccccc2)CC1 (stereo not shown),-19.9%
19,O=C(Nc1ccc(Cl)cc1)Nc1nc(-c2ccccc2)cs1,11.3%
20,C/C(=N\NC(=O)c1ccc(Cn2cc(Br)cn2)o1)c1cccc(NC(=O)C(C)(C)C)c1,-49%
21,C/C(=N/OC(=O)C1CC12CCC2)c1ccc(Br)cc1 (stereo not shown),7.97%
22,O=S(=O)(Nc1ccc2cn[nH]c2c1)c1ccc(Cl)cc1,13.1%

row,Structure (SMILES),"hERG current change (%, negative = inhibition) at 10uM"
1,CCOC(=O)c1ccccc1NC(=O)CN1C(=O)c2ccccc2S1(=O)=O,2.58%
2,CCCC[N+]12CCC(CC1)C(C(O)(c1ccccc1)c1ccccc1)C2.[Br-] (stereo not shown),5.84%
3,O=C(NC(=S)N1CCCC1)c1ccccc1,21.3%
4,C=CCNc1nc(C2(C)CC3(CC(C)(C)OC3=O)C(=O)O2)cs1 (stereo not shown),2.28%
5,COC(=O)c1c(NC(C)=O)sc2c1CCCCC2,4.28%
6,COc1ccc(C(=O)N/N=C(\C)Cn2nc([N+](=O)[O-])cc2C)cc1,-15.8%
7,COc1cc(CNCCc2ccc(S(N)(=O)=O)cc2)ccc1OCc1ccc(Cl)cc1.Cl,-31.8%
8,Cl.c1ccc(Nc2nc(N3CCOCC3)c3ccccc3n2)cc1,-14.2%
9,Nc1nc(CN2CCN(Cc3ccccc3)CC2)nc(N2CCCc3ccccc32)n1,-56.5%
10,CCCOc1ccccc1C1CC(=O)NC2=C1C(=O)CCC2 (stereo not shown),-1.24%
11,O=C(COC(=O)c1ccccc1[N+](=O)[O-])NCCCc1ccccc1,-8.71%
12,COc1ccc(-c2nnc(-c3cc4c(ccc5ccccc54)oc3=O)o2)cc1,-8.75%
13,COC(=O)c1c(-c2ccccc2)noc1C,14.3%
14,Cc1cc(C(=O)CSc2nnc(-c3ccco3)o2)c(C)n1Cc1ccco1,4.88%
15,O=C(NCc1ccccn1)Nc1ccc(Br)cc1Cl,12.8%
16,CN(C(=O)c1c(Cl)nc2sccn12)C1CCCCC1,-14.5%
17,Cc1nnc(NC(=O)C(C)Sc2nncn2C)s1 (stereo not shown),11.2%
18,O=C(CNCc1ccccc1Cl)Nc1ccccc1N1CCCCC1.O=C(O)C(=O)O,20.5%
19,O=C(NCc1cccs1)C1CCN(S(=O)(=O)c2cccc([N+](=O)[O-])c2)CC1,-15.7%
20,CC1CCCN(C(=O)c2ccc3c(c2)C(=O)N(CCC2=CCCCC2)C3=O)C1 (stereo not shown),-11.9%
21,Cc1cc(C(=O)N2CCc3c([nH]c4ccccc34)C2c2cccc(Cl)c2)nn1C (stereo not shown),9.71%
